Measured values: publication PMC4336329 (PLoS ONE, 2015)
The whole screen tested about 310,000 compounds, of which about 2,200 (0.71%) showed an effect of 50% or more. The effect is printed as a negative number. The list shows a part of the results.

molecular target: human ether-à-go-go-related gene (hERG) potassium channel (human, UniProt Q12809); experiment: primary screen, population patch clamp on CHO cells stably expressing hERG
Sequence (Q12809 whole entry, looked up): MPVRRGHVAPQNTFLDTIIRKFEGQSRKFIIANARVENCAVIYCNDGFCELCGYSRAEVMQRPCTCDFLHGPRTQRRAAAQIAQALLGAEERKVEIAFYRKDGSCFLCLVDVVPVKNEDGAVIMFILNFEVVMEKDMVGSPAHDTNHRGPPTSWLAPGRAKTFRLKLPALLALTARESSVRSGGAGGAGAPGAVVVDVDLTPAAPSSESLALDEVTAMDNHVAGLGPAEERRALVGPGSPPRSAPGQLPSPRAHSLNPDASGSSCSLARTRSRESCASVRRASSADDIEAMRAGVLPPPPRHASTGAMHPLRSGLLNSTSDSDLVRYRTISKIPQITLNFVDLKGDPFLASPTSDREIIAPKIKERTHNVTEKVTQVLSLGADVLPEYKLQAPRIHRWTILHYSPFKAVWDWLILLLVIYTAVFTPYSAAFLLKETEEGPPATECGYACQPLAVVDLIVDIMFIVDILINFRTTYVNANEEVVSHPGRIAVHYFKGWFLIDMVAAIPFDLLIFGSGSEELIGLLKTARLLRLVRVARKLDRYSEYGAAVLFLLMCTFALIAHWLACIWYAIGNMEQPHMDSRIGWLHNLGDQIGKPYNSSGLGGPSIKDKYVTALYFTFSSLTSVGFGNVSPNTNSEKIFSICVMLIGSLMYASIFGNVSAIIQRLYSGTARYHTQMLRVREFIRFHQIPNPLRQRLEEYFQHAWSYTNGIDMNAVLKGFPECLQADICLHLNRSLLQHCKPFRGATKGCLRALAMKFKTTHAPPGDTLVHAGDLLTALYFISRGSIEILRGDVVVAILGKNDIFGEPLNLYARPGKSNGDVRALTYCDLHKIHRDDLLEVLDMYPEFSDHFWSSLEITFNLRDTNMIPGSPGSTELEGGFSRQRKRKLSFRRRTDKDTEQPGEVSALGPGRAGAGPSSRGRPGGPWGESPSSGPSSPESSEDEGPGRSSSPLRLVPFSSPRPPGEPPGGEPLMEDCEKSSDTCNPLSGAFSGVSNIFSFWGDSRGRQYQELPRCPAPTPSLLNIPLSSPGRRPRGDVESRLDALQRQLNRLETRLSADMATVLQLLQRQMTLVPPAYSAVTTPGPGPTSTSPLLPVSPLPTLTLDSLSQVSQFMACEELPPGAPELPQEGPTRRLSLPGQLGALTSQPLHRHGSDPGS

Structure (SMILES) | hERG current change (%, negative = inhibition) at 1uM [%]
Cc1ccc(C2CC(=O)NC(SCc3ccccc3)=C2C#N)o1 (stereo not drawn) | 2.19
COc1ccc(OC)c(N(CC(=O)Nc2cccnc2)S(=O)(=O)c2ccc(C)cc2)c1 | 10.1
CCOC(=O)NC(=O)CSc1ccc(C)cc1C | 11.4
c1ccc2c(c1)nc(CN1CCOCC1)n1c3ccccc3nc21 | -13.9
COc1ccc(Cl)cc1NC(=O)C1Cc2cc(S(=O)(=O)N3CCCC3)ccc2N1C(C)=O (stereo not drawn) | 3.74
Cc1[nH]nc2ncc(C(=O)c3cc(F)ccc3O)cc12 | 10.2
O=C(Nc1ccc(Cl)c(-c2nc3ccccc3[nH]2)c1)c1ccc2c(c1)OCO2 | -2.05
Nc1nonc1-n1nnc(C(=O)N/N=C/c2c(Cl)cccc2Cl)c1CN1CCOCC1 | 9.4
CCC(=O)n1nc(NCc2ccc(OC)c(OC)c2)nc1NCc1ccc(OC)c(OC)c1 | 10.6
NS(=O)(=O)c1ccc(Nc2nc(-c3ccc(O)cc3)cs2)cc1 | 8.52
CCOC(=O)/C=C1\SCC(=O)N1CC(=O)Nc1ccccc1OC(F)F | 16.9
COc1ccccc1CCNC(=O)CCn1c(=O)oc2ccccc21 | 16.4
CC(C)(C)c1cc(Cl)ccc1OCCn1ccnc1.O=C(O)C(=O)O | 14.2
NC(=O)c1cccc2ccccc12 | 4.67
CC(=O)c1c(C)nc(Nc2nc3ccccc3s2)nc1C | -0.171
COc1cc(Cl)c(C)cc1NC(=O)CSc1cc(Cl)ccc1Cl | 9.02
CCc1ccc2c(CN(CC)Cc3nc4ccccc4c(=O)[nH]3)cc(=O)oc2c1 | -60.5
CCN1CCCC1CNC(=O)c1cc(OC)c(OC)c(OC)c1 (stereo not drawn) | 16
Cc1ccc(N(C(=O)c2snc(C(N)=O)c2N)C(C(=O)NCC2CCCO2)c2ccc(C)o2)c(C)c1 (stereo not drawn) | -14.5
CCOc1ccc2[nH]c(=O)c(CN(CCO)C(=O)CC)cc2c1 | 14.9
Cc1c(C(=O)NC(=S)NCc2cccnc2)oc2ccccc12 | 7.18
Cc1cccc(OCC(=O)Nc2cc(Cl)ccc2-n2cncn2)c1C | 5.34
Cc1ccc(CNC(=O)/C=C/c2cccs2)cc1 | 11.6

Structure (SMILES) | hERG current change (%, negative = inhibition) at 1uM [%]
COc1ccc(Cc2nnc(NC(=O)c3ccc(F)cc3)s2)cc1OC | 18.4
CCOc1nc2cnccc2n(CC(=O)Nc2ccccc2F)c1=O | 25
CCOc1ccc(Cc2c(Cl)nc(SC)nc2OC)cc1 | 8.33
CN(CC(=O)Nc1ccc(Cl)c(C(F)(F)F)c1)C(=O)c1cccs1 | 16.8
Cc1c(C)c2cc(Cl)c(O)c(CN3CCCCC3)c2oc1=O | 15.4
Cc1cc(N2CCOCC2)nc(SCc2ccc(Cl)cc2Cl)n1 | 14.5
O=C(CSc1nnc(-c2csc3c2CCCC3)o1)Nc1ccccc1 | -4.52
Cc1cccc(-c2cc3nc4c(c(N5CCCC(O)C5)n3n2)CCC4)c1 (stereo not drawn) | 11.2
Cc1sc2nc(CN3CCOCC3)nc(Oc3ccc(NC(=O)c4ccco4)cc3)c2c1C | 4.61
CN(C)CCNc1nc(-c2ccccc2)c2c(c1C#N)CC(C)(C)OC2 | -27.7
COc1ccc2[nH]c(=O)c(-c3noc(-c4ccc(F)cc4)n3)cc2c1 | 4.91
CNC(=O)/C(=C\c1ccco1)NC(=O)c1ccco1 | 11.7
CC(C)n1c(=O)c(C=Nc2ccc(S(N)(=O)=O)cc2)c(O)n(Cc2ccco2)c1=O | 14
O=C(O)C(=O)O.OC(COC(c1ccc(F)cc1)c1ccc(F)cc1)CN1CCCC1 (stereo not drawn) | -62
O=C(NNC(=O)c1ccc(Br)s1)c1cccc(Cl)c1 | 10.9
O=C(NN=C1CCCCCC1)c1cc(-c2ccccc2)nc2ccccc12 | 5.86
Cc1ccc(S(=O)(=O)NCC(=O)OCC(=O)NC(=O)c2cccn2C)cc1 | 17.4
Cc1nn(-c2ccc(N3CCOCC3)nn2)c(C)c1CCC(=O)N1CCN(C)CC1 | 13.1
Cn1c(=O)c2c(ncn2CC(=O)N/N=C/c2ccco2)n(C)c1=O | 3.67
CC(=O)c1ccc(N2CCN(C(=O)Nc3ccc(Cl)cc3)CC2)cc1 | 8.73
O=C(Cn1nc(-c2ccc3c(c2)OCCO3)ccc1=O)Nc1ccc(-n2cnnn2)cc1 | 13.7
O=C(Nc1cccc(-n2cnnn2)c1)c1cc(Cl)nc(Cl)c1 | 4.83
CCOC(=O)CSc1nnc(COc2ccc3ccccc3c2)o1 | 10

Structure (SMILES) | hERG current change (%, negative = inhibition) at 1uM [%]
CC(C)(C)c1ccc(Cn2nnc3c(=O)[nH]c(C4CCCN(C(=O)c5ccco5)C4)nc32)cc1 (stereo not drawn) | 8.87
CCC(CC)C(=O)c1c[nH]c(C(=O)NC2CCCCCC2)c1 | 3.72
COc1ccc(-c2noc(-c3cccnc3)n2)cc1OC | 7.87
COc1cc2[nH]c(=O)c(C(=O)NCc3ccc(F)cc3)c(O)c2cc1OC | 8.85
O=C(COC(=O)c1nc(Cl)ccc1Cl)Nc1ncc(Cl)cc1Cl | 14.4
CC(=O)Nc1ccc(Cl)cc1C(=O)O | 8.71
O=C(CNC(=O)c1cccs1)Nc1ncccc1O | 9.71
Cc1nc(N(C)Cc2ccccc2)c2nnn(Cc3ccccc3)c2n1 | 12.4
Cc1nn(-c2ccccc2)c(C)c1C(=O)NCc1cccs1 | 11.2
O=S(=O)(c1cccc2cccnc12)N1CCCCC1 | 12.4
CCCCNC(=O)NC12CC3CC(CC(C3)C1)C2 | -12
CCN(CC)CCOC(=O)c1cccc2c1-c1ccccc1C2O.Cl (stereo not drawn) | 5.9
COc1ccc(CN(CC2CCCO2)C(=O)CN2C(=O)COc3ccccc32)cc1OC (stereo not drawn) | 7.89
O=C(CCC(=O)N1CCSc2ccccc21)Nc1ccc(F)cc1 | 14.3
CCC(C)(C(=O)NC1CCCC1)N(C(=O)Cc1cccs1)c1c(C)n(C)n(-c2ccccc2)c1=O (stereo not drawn) | 9.14
Cc1ccc(N(CC(=O)O)S(=O)(=O)c2cccc3nonc23)cc1 | 8.31
CC(C)(C)NC(=O)NC(=O)COC(=O)c1cccc(NS(=O)(=O)c2ccc(F)c(F)c2)c1 | 7.76
Cn1nnnc1SCC(=O)N1CCc2ccccc21 | 8.86
CCN(CC)CCCCOc1ccccc1OC | 1.8
Cl.Nc1nc(N2CCN(C(=O)c3ccco3)CC2)nc2ccccc12 | -32.9
CC1Cc2ccccc2C(CCc2ccccc2)=N1.Cl (stereo not drawn) | 8.68
Cc1cc(Cl)ccc1OCC(=O)N1CCCN(C(=O)COc2ccc(Cl)cc2C)CC1 | -4.16
CCOC(=O)C1CCN(Cc2ccc(N(C)C)cc2)CC1 | 13.5

Structure (SMILES) | hERG current change (%, negative = inhibition) at 1uM [%]
COc1ccc2ccccc2c1/C=N\n1c(C)cc(C)c(C(N)=O)c1=O | 10.1
O=C(NNC(=S)NC1CCCCC1)c1ccccc1Cl | 8.08
CC1CCCN(CCCNC(=O)c2coc3nc4ccccc4nc23)C1 (stereo not drawn) | 8.45
CCOc1ccc(Nc2nc3cc(S(=O)(=O)CC)ccc3o2)cc1 | 11
CC(C)NC(=S)Nc1ccc2[nH]c(=O)[nH]c2c1 | 5.15
COc1ccc(C2CC(C(F)(F)F)n3nc(C(=O)NCCCn4ccnc4)cc3N2)cc1OC (stereo not drawn) | 6.41
COc1cc(NC(=O)CN2CCN(S(=O)(=O)/C=C/c3ccccc3)CC2)cc(OC)c1OC | 3.24
Cc1c(C(=O)N/N=C/c2c(O)ccc3ccccc23)nnn1-c1nonc1N | 20
Cc1c(NC(=O)COc2ccc(C(C)C)cc2)c(=O)n(-c2ccccc2)n1C | -14.3
CCSc1nsc(SCC)c1C(N)=O | 10.7
CCOc1ccnc2c1c(=O)n(Cc1cc(OC)cc(OC)c1)c(=O)n2C | 6.55
Cl.O=C(CN1CCCC1)NC12CC3CC(CC(C3)C1)C2 | 4.67
Cc1cccn2c(=O)c3cc(C(=O)NCc4ccco4)c(=N)n(C4CCCC4)c3nc12 | -85.5
COc1cc2ncnc(NCc3ccccc3)c2cc1OC | 6.49
CC(=O)c1ccc(NC(=S)NCCCN2CCOCC2)cc1 | 10.3
CN1C(=O)N(C)C(=O)C(CCc2ccncc2)(CCc2ccncc2)C1=O | -8.33
COc1ccccc1NCCC(=O)OCC(=O)Nc1cccc(S(=O)(=O)N(C)C)c1 | 12.1
COCn1c(C(O)c2ccccc2)cc2ccccc21 (stereo not drawn) | 13.6
COC(=O)Nc1nc(Sc2ncc(C(F)(F)F)cc2Cl)n[nH]1 | 0.842
Cc1ccc([C@@H]2CC=C(C(=O)O)CN2S(=O)(=O)c2ccc(C)cc2)cc1 | 17.6
COC(=O)c1cn(C(=O)c2cc(Cl)ccc2Cl)c2ccccc12 | 12.7
